# Hit rate of the full screen: of about 150,000 compounds, about 540 (0.36%) showed an effect of 50% or more. Some of the results follow.
# Tested on: Plasmodium falciparum
# Test: Primary screen in NF54 nanoGlo assay, in single point, at 2uM, 72h; a lower Z score goes with more inhibition
# Format: functional, Erythrocyte
# Conditions: timepoint 72 hour
SMILES,% Inhibition [%],Z score
CN1CCCc2c(c3ccccc3n2CCC(=O)O)C1,-13,1.7
O=S(=O)(c1cncc(F)c1)N(C1CC1)C1COC1,-3,0.23
CN1C(=O)[C@]2(c3ccccc31)[C@H](C(N)=O)C[C@@H]1CCCN12,-14,1.81
O=C(NCc1ccc(-n2cncn2)nc1)c1ccccn1,-11,1.03
FC(F)(F)c1nnc2ccc(N(CC3CC3)CC3CC3)nn12,-10,1.47
O=C(Nc1ccc(Oc2ccc3ccccc3c2Cl)c(Cl)c1)c1ccc2c(c1)OCO2,-16,1.73
CN1CCOC2CN(C(=O)c3c(F)ccc(F)c3F)CC21 (stereo not drawn),-1,0.09
CC(C)(C)c1ccc(NC(=O)[C@@H]2CCCCS2(=O)=O)cc1,-10,1.25
CCC[C@H](C)c1nc(N2CCN(C(=O)c3ccco3)CC2)c2c(C)nn(-c3ccc(F)cc3)c2n1,-13,2.02
C[C@@H](CCc1ccco1)Nc1nc(-c2ccccn2)no1,-6,0.84
CC(C)[C@H]1C[C@@H]1NC(=O)c1ocnc1C1CC1,-12,1.58
COc1cccc(CNC2CCN(c3ncnc4[nH]cnc34)CC2)c1OC,17,-2.91
O=C1O[C@H](C(=O)N2CCN(c3ccccc3)CC2)Cc2ccccc21,-7,1.1
Cn1nc(CN2CCCc3occc3C2)[nH]c1=O,-14,2.68
CCC(CC)C(=O)Nc1ccc(Br)cn1,0,-0.03
C=CCNC(=O)[C@H]1CC(=O)N(c2ccc(OCC(=O)NCc3ccccc3)cc2)C1,-13,1.74
CCOC(=O)[C@@H]1CCCCN1Cc1nc(N2CCCN(C(C)=O)CC2)c2cccc(C)c2n1,-10,1.76
COc1ccc(CNc2nc(-c3nnc(-c4ccccc4)o3)nc3ccccc23)cc1,55,-10.02
O=C(NC1CCCCCCC1)c1cc(S(=O)(=O)N2CCCC2)c[nH]1,-21,1.99
Nc1c(Br)cc(Br)cc1C(F)(F)F,-6,0.83
O=C(OCC(=O)N1CCC(Cc2ccccc2)CC1)c1ccccc1Oc1ccccc1,-3,0.3

SMILES,% Inhibition [%],Z score
O=C(CCC1CCCCC1)N1CC[C@H]2C(=O)N(Cc3ccccc3)CC(=O)N2CC1,1,-0.15
O=C(Cn1cnc(-c2ccccc2)n1)N1CCOCC1,-13,2.33
Cc1nc(C(=O)N2CC3CCC2C3)cs1 (stereo not drawn),-8,1.07
COc1cccc(C(=O)NC[C@@]2(COc3cccnc3)C[C@@H](O)[C@@H](O)C2)c1,22,-2.57
CCn1nc([C@H]2CCOC2)nc1-c1cnc(C2CC2)[nH]c1=O,-1,0.13
CCOC(=O)[C@@]1(NCc2nnc(C(C)C)o2)CCc2ccccc21,-12,1.07
CCCn1ncc(C(=O)N2CC[C@@H]3OCc4cccc(c4)Oc4cccc(c4)CC(=O)N(CC)CC(=O)N[C@H]3C2)c1C,19,-2.62
COc1cccc(C(=O)C[n+]2cc(-c3ccc(Cl)cc3)n(C)c2N)c1,-6,0.83
COCC(NC1CCC2C(C#N)CC1N2Cc1ccccc1)C1CC1 (stereo not drawn),9,-1.62
C=CC[C@]1(CO)CCCN(c2nccc3ccccc23)C1,-17,2.18
CCCn1c(C)cnc1CC1CCN(C(=O)c2ccn(CC)n2)CC1,-6,0.92
COC[C@@H]1CN(S(=O)(=O)c2ccc(F)cc2)C[C@H]1c1nc(C)no1,-6,1.06
CC(C)[C@H](NC(=O)c1cc(Br)ccc1-n1cnnn1)c1nc2ccccc2n1C,-1,0.1
CC(C)(C)c1ccc(S(=O)(=O)NCc2cncc(C#N)c2)s1,-2,0.35
O=C(CCc1ccc(F)cc1)N[C@H]1CN(CCO)C[C@@H]1C1CC1,-6,1.06
COc1cc(-c2ncc(C(=O)NCCN(C)C)c(N(C)Cc3ccccc3)n2)cc(OC)c1OC,-4,0.61
Cc1cn2cc(C(=O)N3CCn4nc(CO)cc4C3)ccc2n1,-24,2.38
CN(C)c1noc(CNCc2c(F)cccc2OC(F)(F)F)n1,10,-1.03
Cc1c(C2CC2)n[nH]c1NS(=O)(=O)c1ccccc1,-1,0.15
Cc1ccc(-c2ccc(C(=O)NCCC3=CCCCC3)cn2)cc1,-21,2.1
Cn1nccc1-c1ccc(CNC(=O)[C@@H]2CCCO2)cn1,-6,0.7

SMILES,% Inhibition [%],Z score
Cc1ccc(CNS(=O)(=O)c2cc(-c3nc(C)c(C(=O)N4CCCCC4)s3)cs2)cc1,0,0.04
c1ccc2oc(-c3ccnc4ccccc34)nc2c1,0,0.04
CCOc1ccccc1N(C)C(=O)Nc1nnc(CC)s1,-19,3.59
O=C(O)c1ccc(CN2C(=O)C3CCCCC3C2=O)cc1 (stereo not drawn),34,-3.85
CCn1c(CC2CCN(C(=O)c3cnccc3C)CC2)nn(C)c1=O,-3,0.51
CCOc1ccccc1CN1C[C@@H]2CC[C@H]1CN(S(=O)(=O)N(C)C)C2,-8,0.96
O=C(NC(N1CCc2ccccc2C1)(C(F)(F)F)C(F)(F)F)c1ccccc1,-14,2.03
CCc1c(C(=O)NC[C@H]2Cc3ccccc3O2)ccn1C,-12,1.56
C[C@@H](Cc1nnc(NC(=O)COc2ccc(Cl)cc2)s1)c1ccccc1,-17,2.48
CCN(CC(=O)O)C1CCN(Cc2csc3ccccc23)CC1,-9,0.82
CCNC(=O)CCN1CCc2[nH]nc(-c3ccc(-c4ccccc4)cc3)c2C1,-8,0.95
CCN1C[C@@H](c2ccccc2)CC2(CCN(Cc3c(C)noc3C)CC2)C1,-6,0.75
C[C@@]1(C(=O)O)CCCN1Cc1ccc2cc[nH]c2n1,-16,3
CCCc1cc(C(=O)N2C[C@@H](CN3C[C@@H](C)O[C@@H](C)C3)[C@@H](CO)C2)n(C)n1,-10,1
CCC(O)CN1CCOC(CN(CC(C)C)C(=O)c2ccc(OC)cc2)C1 (stereo not drawn),-12,1.41
COc1ccccc1CCn1nnnc1N1CCC(CO)(OC)CC1,-4,0.74
COc1ccc(OC)c(-c2ncc(NC(=O)c3ccc4ncsc4c3)s2)c1,-18,3
CCOC(=O)N1CCN(C(=O)[C@H]2CCC(=O)N(CCc3ccccc3)C2)CC1,3,-0.54
O=C(c1ccc(-c2cccs2)nc1)N1CCN(C2CCCCC2)CC1,-11,2.07
Cn1cc(CCC(=O)NC2(CC(=O)OC(C)(C)C)CCCC2)cn1,-9,1.61
CCCNC(=O)[C@@H]1COC2(CCC(C)CC2)N1C(=O)CC (stereo partly drawn),0,0.06

SMILES,% Inhibition [%],Z score
CCC(NC(=O)c1cc(CO)ccn1)[C@H]1C[C@@H](O)C1 (stereo partly drawn),-1,0.19
O=C(Nc1ccc2c(c1)OC1(CCCCC1)O2)[C@@H]1Cc2ccccc2O1,8,-0.93
Cc1ccc(-c2nc(C#N)c(S(=O)(=O)c3ccc(F)cc3)o2)cc1,-5,0.72
Cc1nc(C(=O)NCc2ncc(Cl)cn2)c[nH]1,-13,2.1
N#Cc1cnn2c(-c3ccncc3)ccnc12,-13,1.4
COc1ccccc1Nc1nc(N)nc(COC(=O)c2cc3ccc(F)cc3nc2C)n1,-12,2.22
Cc1cccc(OCC(=O)NCC(F)(F)F)c1F,-6,0.57
Cc1[nH]c2ccccc2c1C1CCN(C(=O)c2ccc(Br)cc2O)CC1,35,-4.7
CCCCN(C)S(=O)(=O)Nc1ccc(CC#N)cc1,-1,0.09
CC(C)Cn1cncc1CN(C)[C@@H](C)c1ccncn1,-2,0.45
COC[C@H]1COCCN1C(=O)c1cccc(Oc2nccs2)c1,-8,1.52
C=CCOC1CCN(C(=O)C2CC3CCC2O3)CC1 (stereo not drawn),-11,1.79
O=S(=O)(N[C@@H](Cn1cnc2ccccc21)c1ccc(F)cc1)c1c(F)cccc1F,5,-0.43
O=C(NC1CC1c1cccc(F)c1)C1COCCN1 (stereo not drawn),2,-0.27
COc1ccc(CC[C@H]2CCCN(C(=O)c3cccnc3OC)C2)cc1,-5,0.72
CC(C)c1nnc(COc2cnc(C#N)nc2)s1,-11,1.98
CCc1noc([C@H](C)n2cnc3ncccc3c2=O)n1,-5,0.6
NC(=O)[C@H](CC1CCCCC1)NC(=O)[C@H]1CN(C(=O)c2cccc(F)c2)CCN1C(=O)C1CCCCC1,2,-0.33
Cc1n[nH]c([C@@H]2CCN(Cc3ccccc3)CCN2C(=O)c2cnn(C)c2)n1,-5,0.74
Cc1cc2c(cc1-c1cn(C[C@H](C)Oc3cccnc3)nn1)OCO2,-7,1.38
Cc1ncsc1CNc1ccc2c(c1)CCN2C(=O)OC(C)(C)C,1,-0.11

# Source: ChEMBL document CHEMBL4888484, “Replenishing the malaria drug discovery pipeline: Screening and hit evaluation of the MMV Hit Generation Library 1 (HGL1) against asexual blood stage Plasmodium falciparum ,using a nano luciferase reporter read-out” (2022)
